Over roughly 33,000 sequences, “E-score (-0.5 to 0.5)” has its median near -0.053; the highest 2% begin near 0.37. This is one part of the list.
target: Hap1 (UniProt P0CE41); test: PBM E-score (8-mer binding enrichment) (E-score (-0.5 to 0.5)); higher = stronger / more preferred TF binding; most listed sequences are background and not binding sites; conditions: protein concentration: 200 nM; construct: GST-DNA-binding domain
In short: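 Masliner-normalised scans of fluorescent anti-GST signal were the basis for scoring. That signal came from GST-tagged yeast transcription factors applied at about 100-200 nM to double-stranded universal all-10-mer Agilent arrays on fresh or once-stripped slides. Each ungapped eight-base word, pooled with its reverse complement, received an E-score from the Universal PBM Analysis Suite.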

Chain of UniProt P0CE41 (P0CE41 whole entry, the tested form may be a part): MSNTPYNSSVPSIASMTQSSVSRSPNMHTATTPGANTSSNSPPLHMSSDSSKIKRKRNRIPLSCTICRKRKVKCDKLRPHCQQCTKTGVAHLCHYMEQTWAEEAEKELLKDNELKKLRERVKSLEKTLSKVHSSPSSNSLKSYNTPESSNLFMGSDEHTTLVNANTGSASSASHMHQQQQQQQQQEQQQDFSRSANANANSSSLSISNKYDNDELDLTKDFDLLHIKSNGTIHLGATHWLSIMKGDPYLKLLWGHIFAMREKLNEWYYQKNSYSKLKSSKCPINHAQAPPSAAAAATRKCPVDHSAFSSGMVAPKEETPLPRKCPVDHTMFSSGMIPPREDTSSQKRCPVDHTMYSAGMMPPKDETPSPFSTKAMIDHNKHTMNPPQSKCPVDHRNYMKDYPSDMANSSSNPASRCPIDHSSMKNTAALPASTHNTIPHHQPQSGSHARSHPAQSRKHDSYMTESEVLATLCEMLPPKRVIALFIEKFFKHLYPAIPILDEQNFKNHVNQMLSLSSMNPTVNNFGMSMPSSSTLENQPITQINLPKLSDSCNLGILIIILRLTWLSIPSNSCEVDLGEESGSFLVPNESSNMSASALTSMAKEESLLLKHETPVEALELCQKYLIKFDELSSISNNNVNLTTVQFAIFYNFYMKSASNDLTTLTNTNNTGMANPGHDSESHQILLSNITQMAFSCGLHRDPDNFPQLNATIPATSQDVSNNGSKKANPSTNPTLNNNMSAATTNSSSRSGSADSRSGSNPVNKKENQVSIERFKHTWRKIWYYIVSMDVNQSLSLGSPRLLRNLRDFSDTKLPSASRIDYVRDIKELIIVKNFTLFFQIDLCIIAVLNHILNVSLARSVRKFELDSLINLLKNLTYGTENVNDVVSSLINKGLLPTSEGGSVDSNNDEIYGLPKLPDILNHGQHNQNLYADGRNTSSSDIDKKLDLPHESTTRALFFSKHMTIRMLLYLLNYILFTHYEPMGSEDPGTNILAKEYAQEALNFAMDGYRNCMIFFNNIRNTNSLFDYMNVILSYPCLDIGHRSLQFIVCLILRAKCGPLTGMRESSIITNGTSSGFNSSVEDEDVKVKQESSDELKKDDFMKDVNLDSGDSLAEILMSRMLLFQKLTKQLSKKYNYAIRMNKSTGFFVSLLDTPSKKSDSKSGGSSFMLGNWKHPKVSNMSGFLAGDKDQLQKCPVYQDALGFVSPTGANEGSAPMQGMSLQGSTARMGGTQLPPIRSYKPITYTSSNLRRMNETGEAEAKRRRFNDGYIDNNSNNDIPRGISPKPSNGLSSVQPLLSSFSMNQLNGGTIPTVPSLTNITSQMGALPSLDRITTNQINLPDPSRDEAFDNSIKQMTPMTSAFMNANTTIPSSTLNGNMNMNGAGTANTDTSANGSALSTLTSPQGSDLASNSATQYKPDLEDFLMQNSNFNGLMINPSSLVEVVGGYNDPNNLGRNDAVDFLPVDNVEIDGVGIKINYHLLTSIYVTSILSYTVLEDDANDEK

| Sequence | PBM E-score |
| --- | --- |
| TCCCAACA | -0.206 |
| CGAAGCAA | -0.112 |
| ACCCAGTC | -0.00985 |
| CACACTGC | -0.0318 |
| CAGTTCCA | -0.0865 |
| AGTCCTAT | -0.0943 |
| ATGTGCCA | -0.302 |
| CCTATCCC | 0.122 |
| AATTACAG | 0.0274 |
| CTTAAAGC | 0.12 |
| ATCCTGAG | -0.182 |
| CCACTGGA | -0.132 |
| AACGTGAT | -0.272 |
| CCATGGCG | 0.102 |
| CCGATTGA | 0.181 |
| AAATTTTA | -0.22 |
| GCGCCACA | -0.19 |
| AGACGCCC | 0.136 |
| CCAAAATC | -0.0233 |
| CTTCACGC | 0.0443 |
| CACAGTGC | 0.00378 |
| CTCCCGAA | 0.0966 |
| ATCCACTA | -0.0975 |
| AACTCAGA | -0.17 |
| AAAATGCA | -0.131 |

| Sequence | PBM E-score |
| --- | --- |
| CCTTTCCG | 0.239 |
| GCCTTTCC | 0.112 |
| GCATATCA | 0.0762 |
| GCGTTAAA | 0.123 |
| AAACCAAT | 0.0157 |
| GGAAACCC | 0.226 |
| AGCAGTAT | -0.202 |
| GGGGAGAC | 0.0358 |
| AACGTATT | -0.0293 |
| CAGCTAAA | -0.0463 |
| CAACATGA | -0.0313 |
| GATCCGCA | 0.253 |
| CCCGCATC | 0.0799 |
| CGAACGAC | 0.0153 |
| CCTGACAA | -0.227 |
| AGGCTGTC | -0.089 |
| TACGGCAA | 0.108 |
| CCAGGGTC | -0.126 |
| CCATAGTC | -0.115 |
| ACAATGGT | -0.238 |
| GAATGGTC | 0.0013 |
| AAGCGATT | -0.016 |
| ATTCCAGG | -0.131 |
| AACCCCAA | 0.0187 |
| ACCTGTAC | -0.0444 |

| Sequence | PBM E-score |
| --- | --- |
| CCCGTCCA | 0.0596 |
| AGACCTCG | 0.0209 |
| GATAAGTA | 0.0954 |
| CGAGATCA | 0.0352 |
| CCACTCCA | -0.188 |
| CATTGCCA | -0.127 |
| TCAAGCAA | -0.152 |
| AGCCGACG | 0.234 |
| CTTCGGGA | 0.277 |
| CCGCGTGA | 0.111 |
| AGTACCTG | -0.151 |
| CCATTCTA | -0.222 |
| ACTTCGTG | -0.184 |
| CGAAAATC | 0.0345 |
| TATCGTCA | -0.0513 |
| ACGCGGCT | -0.00618 |
| AGCTACAT | -0.123 |
| GTAACCAA | 0.0669 |
| ACTTTCAA | 0.0743 |
| GATAAGAC | 0.0477 |
| GCCTGCGC | -0.0989 |
| ACACCGGA | 0.395 |
| GACGTAAA | 0.116 |
| CAGGTGTA | -0.199 |
| GCGCGGAA | 0.28 |

| Sequence | PBM E-score |
| --- | --- |
| GCTGCGTA | -0.364 |
| GAAGGGCC | -0.156 |
| GTCCAATA | 0.0873 |
| GAGACGCA | 0.0319 |
| CAGTGAAC | -0.195 |
| CTATAAGC | 0.0118 |
| AAGAAAAT | -0.0323 |
| CAGGTACG | -0.0992 |
| CGCAATCA | 0.117 |
| CATGCGGG | 0.0552 |
| AGGCGGGA | -0.0314 |
| CAAGCGTC | -0.181 |
| ATGGCTAC | -0.296 |
| GAGACATC | 0.137 |
| GACTACTA | -0.171 |
| ACTTAAAT | -0.178 |
| ACTGTAAG | -0.0778 |
| TATAGTGA | -0.235 |
| GTGTTAAC | -0.0743 |
| TCGTAGCA | -0.149 |
| CGCCCACC | -0.146 |
| GGAGAGAC | 0.101 |
| AGCTTGTA | -0.272 |
| GCCCTACA | -0.0469 |
| ACTTAGAC | -0.115 |

| Sequence | PBM E-score |
| --- | --- |
| ATAAAGAT | -0.0806 |
| CCCTATCG | 0.155 |
| ATTCCGAA | 0.375 |
| ATGGGAAC | -0.142 |
| ACTTAGTC | -0.00216 |
| CGTCCTTC | -0.0208 |
| TCTAGCAA | -0.0384 |
| CGTATAGA | -0.188 |
| AGAAAGGC | -0.116 |
| GCATCTAA | 0.171 |
| CACGGAAC | 0.28 |
| GGACACAA | 0.138 |
| CAGTCGCG | -0.0131 |
| CATCATAG | -0.109 |
| CCTACCAC | -0.0291 |
| ATAGCGGG | 0.168 |
| ACGCAGTA | -0.0558 |
| GGATGTCA | 0.0609 |
| CCGTGAGA | 0.0735 |
| CTCTGCTA | -0.177 |
| CACGTTTC | -0.0464 |
| ATCACTGG | -0.17 |
| ATGCTCAA | -0.119 |
| ATCTTGCG | 0.071 |
| CATCCAGA | -0.186 |

| Sequence | PBM E-score |
| --- | --- |
| CCACACAA | -0.294 |
| CGTGGTGA | -0.104 |
| ACTAGCAA | -0.0991 |
| CGGCGCGA | 0.278 |
| AGCCCACT | -0.19 |
| ACCCGATA | 0.439 |
| CTTGTAGC | -0.145 |
| ACGCGGAC | 0.331 |
| GCTGGTAC | 0.0706 |
| CCACGCCA | -0.308 |
| GTCGTAGA | -0.175 |
| AGCCCCCT | -0.251 |
| CCGGGTCG | 0.291 |
| CGGCAAGA | 0.0997 |
| ACGGTGCT | 0.00635 |
| GGCACTAA | 0.163 |
| ACCGGATG | 0.329 |
| AGGATGAT | -0.204 |
| CGACGCGA | 0.0265 |
| GGCTCAGA | -0.0798 |
| GGCATCCC | -0.0619 |
| GAGTGTTA | -0.078 |
| ACTTTGAT | -0.205 |
| AAAGTACA | -0.223 |
| AGCCGTCC | 0.105 |

| Sequence | PBM E-score |
| --- | --- |
| ACATCCAC | -0.0519 |
| AAAAATAG | -0.0154 |
| AATGGTAC | -0.122 |
| GGTGCTGA | 0.111 |
| AGCTCCTA | 0.0713 |
| CTATGCGC | 0.0954 |
| AGTAAGCA | -0.286 |
| CAACCTTC | -0.0289 |
| GCTTTTCC | 0.175 |
| TCTCGCAA | -0.0649 |
| GAGCATCA | -0.133 |
| GAGGGCTA | -0.259 |
| TCTGATCA | -0.0745 |
| GGGATGCA | 0.0127 |
| ACAATCTA | -0.186 |
| CATCTGGG | -0.325 |
| GCTTAGCC | 0.0506 |
| CGCACACC | 0.0349 |
| ACGGCTTA | 0.169 |
| AGACACGA | -0.00421 |
| ATCTACCG | 0.178 |
| TGACTGAA | -0.245 |

From the supplement of paper PMC3334620
